Test results taken from the supplement of paper PMC7826260.
Some of the results follow. Viral Rep nickase domains cut single-stranded DNA in vitro (3 µM enzyme, 1 h, 37 °C); shown is the middle of each 90-letter strand. Uncut reads are compared with the no-enzyme pool on a log2 scale; strong cutting gives strongly negative numbers. There is no active / inactive call. Because reads are shares of a total, they shift together; uncut strands gain when others are lost, and binding without cutting may add a little.

Tests used:
Experiment in all cases: uncleaved DNA left, log2 of reads against the no-enzyme library (log2 ratio); higher = less cleavage (more negative = more Rep cleavage of the k-mer); sequences stand for … in CTCGTCCG…ACCGGAGA
[1] = tested on: T1, Rep nickase domain of Muscovy duck circovirus
T1 sequence (protein, residues 1-111, tag omitted): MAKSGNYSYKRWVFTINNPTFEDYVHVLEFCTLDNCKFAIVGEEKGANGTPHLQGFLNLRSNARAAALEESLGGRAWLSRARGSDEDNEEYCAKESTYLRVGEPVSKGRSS
Method: (§1)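 A pool of 90-nt single-stranded DNAs with seven random bases just before the constant AC of the nick site (name = the seven bases) was cut by 3 µM recombinant His6-SUMO-tagged Rep nickase domain (300 nM DNA, 50 mM HEPES pH 8.0, 50 mM NaCl, 1 mM MnCl2, 1 h, 37 °C, three replicates). Uncut DNA was amplified and sequenced.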

[2] = tested on: T2, Rep nickase domain of banana bunchy top virus
T2 sequence (protein, residues 1-94, tag omitted): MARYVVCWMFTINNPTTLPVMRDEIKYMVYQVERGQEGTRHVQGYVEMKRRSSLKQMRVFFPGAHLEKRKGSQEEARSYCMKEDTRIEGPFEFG
Method: as §1

[3] = tested on: T3, Rep nickase domain of cabbage leaf curl virus
T3 sequence (protein, residues 1-116, tag omitted): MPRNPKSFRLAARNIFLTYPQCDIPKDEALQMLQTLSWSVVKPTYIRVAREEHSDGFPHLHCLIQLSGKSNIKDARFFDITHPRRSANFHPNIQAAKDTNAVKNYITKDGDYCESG
Method: as §1

[4] = tested on: T4, Rep nickase domain of chickpea chlorotic dwarf virus
T4 sequence (protein, residues 1-124, tag omitted): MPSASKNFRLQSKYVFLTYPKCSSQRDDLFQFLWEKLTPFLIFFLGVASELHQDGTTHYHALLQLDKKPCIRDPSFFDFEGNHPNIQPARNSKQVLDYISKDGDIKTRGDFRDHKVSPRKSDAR
Method: as §1

[5] = tested on: T5, Rep nickase domain of faba bean necrotic yellows virus
T5 sequence (protein, residues 1-98, tag omitted): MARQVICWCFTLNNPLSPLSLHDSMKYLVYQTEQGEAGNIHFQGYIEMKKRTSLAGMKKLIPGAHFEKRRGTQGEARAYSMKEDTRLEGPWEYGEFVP
Method: as §1

[6] = tested on: T6, Rep nickase domain of maize striate mosaic virus
T6 sequence (protein, residues 1-117, tag omitted): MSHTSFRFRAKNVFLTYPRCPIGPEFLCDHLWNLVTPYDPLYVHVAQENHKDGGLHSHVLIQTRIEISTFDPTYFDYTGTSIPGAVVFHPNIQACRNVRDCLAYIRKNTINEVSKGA
Method: as §1

[7] = tested on: T7, Rep nickase domain of porcine circovirus 2
T7 sequence (protein, residues 2-116, tag omitted): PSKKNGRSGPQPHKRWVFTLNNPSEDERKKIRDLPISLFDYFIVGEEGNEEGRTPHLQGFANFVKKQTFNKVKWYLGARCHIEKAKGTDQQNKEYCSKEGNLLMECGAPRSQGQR
Method: as §1

[8] = tested on: T8, Rep nickase domain of tomato golden mosaic virus
T8 sequence (protein, residues 1-124, tag omitted): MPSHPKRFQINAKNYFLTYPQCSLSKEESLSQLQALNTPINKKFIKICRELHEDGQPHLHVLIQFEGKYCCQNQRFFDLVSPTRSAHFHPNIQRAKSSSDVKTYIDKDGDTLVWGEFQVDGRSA
Method: as §1

[9] = tested on: T9, Rep nickase domain of tomato yellow leaf curl virus
T9 sequence (protein, residues 1-136, tag omitted): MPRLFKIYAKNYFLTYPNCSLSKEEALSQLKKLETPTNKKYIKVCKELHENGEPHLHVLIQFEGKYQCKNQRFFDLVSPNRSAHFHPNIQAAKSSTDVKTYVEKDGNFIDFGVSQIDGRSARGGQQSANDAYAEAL
Method: as §1

[10] = tested on: T10, Rep nickase domain of wheat dwarf virus
T10 sequence (protein, residues 1-137, tag omitted): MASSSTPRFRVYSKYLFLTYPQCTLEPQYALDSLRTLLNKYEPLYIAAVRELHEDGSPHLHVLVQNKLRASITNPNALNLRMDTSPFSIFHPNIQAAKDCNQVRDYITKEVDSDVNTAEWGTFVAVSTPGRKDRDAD
Method: as §1

Sequence	uncleaved DNA left (log2) [1]	uncleaved DNA left (log2) [2]	uncleaved DNA left (log2) [3]	uncleaved DNA left (log2) [4]	uncleaved DNA left (log2) [5]	uncleaved DNA left (log2) [6]	uncleaved DNA left (log2) [7]	uncleaved DNA left (log2) [8]	uncleaved DNA left (log2) [9]	uncleaved DNA left (log2) [10]
GGAGGGA	0.148	0.199	0.755	1.41	0.131	1.5	0.259	0.181	0.039	0.175
GTTGATT	0.128	-0.0194	0.269	0.642	-0.115	1.54	-0.0543	0.0452	0.0553	0.0789
GCCGCAA	-0.0456	-0.0674	0.0343	0.182	-0.179	-0.147	0.0445	-0.0921	-0.102	-0.191
ACCGCAG	-0.0536	-0.1	-0.635	0.091	0.0288	-0.623	0.096	-0.0433	0.00392	-0.227
CTCCGCG	-0.0288	0.0304	-0.687	-0.0613	-0.0503	-0.803	0.0657	-0.106	-0.00788	-0.149
TCTACTT	-0.0124	-0.0399	-0.114	-2.69	0.00744	-0.2	-0.622	0.0857	0.0622	-0.132
AAACGGC	0.0911	0.145	0.00125	-0.265	0.0187	-0.722	0.064	0.103	-0.0584	0.085
ACTCGAC	0.123	0.00263	-0.0626	0.0791	0.0458	-0.396	0.159	0.151	-0.0327	0.0139
TGCGCGT	0.0838	-0.121	-0.611	-0.657	0.105	-0.843	0.0868	-0.0256	-0.031	-0.208
TCAGTGC	0.139	0.074	-0.685	-0.592	0.0765	-1.17	0.243	0.11	0.212	0.0681
CGGTTTT	-1.23	0.000852	0.288	-0.226	-0.0717	0.826	-2.59	0.0448	0.0435	0.0773
CGCCACA	-0.0331	-0.0218	-0.0406	-0.799	-0.0931	-0.177	-0.073	0.0127	0.0152	-0.112
AAGCTGA	0.142	0.0165	0.532	1.91	0.157	1.85	0.345	0.235	0.0917	0.103
CGAACCG	-0.0413	0.0299	-0.748	-0.696	0.0339	-0.985	0.0649	-0.00978	-0.0168	-0.104
TGGTCTT	-1.07	-0.0931	0.45	-0.317	-0.113	1.47	-3.01	-0.111	-0.0532	0.113
TGATCGG	0.0297	0.0585	0.501	1.44	0.00135	1.89	0.145	0.115	-0.0665	0.0597
CCTACCA	-0.251	-0.0231	-0.504	-2.66	-0.0918	-0.594	-0.78	-0.144	-0.0378	-0.0956
GTGGCAT	0.0293	0.0823	0.841	1.96	-0.0904	2.26	0.22	0.0203	-0.0504	0.116
AGCACAC	0.0736	0.033	0.0334	0.456	0.0987	0.646	-0.00673	0.00391	0.118	0.103
CTGGTAA	-0.0767	-0.105	-0.115	-0.221	-0.0902	-0.286	0.0543	-0.0685	0.0244	-0.101
AAAAAAA	0.0102	0.114	0.0655	-0.808	0.143	-0.636	0.108	0.167	-0.0325	0.0589
CGCGCAC	-0.0581	-0.0269	-0.103	-0.0994	-0.154	-0.222	-0.0557	-0.0847	-0.144	-0.062
CCACCGT	-0.0726	-0.0137	-0.33	-1.12	0.0256	-0.869	0.0396	0.0269	-0.117	-0.107
GCGTCCT	-0.132	-0.16	0.0254	-0.551	0.0312	0.421	-1.59	-0.0235	-0.0253	0.135
GCTAATT	-0.0907	-0.0297	-0.00258	-1.03	-0.0609	0.166	-0.358	-0.0709	-0.0408	-0.00524
GGCGATC	0.0552	-0.0253	0.359	1.09	-0.0599	1.48	0.204	0.00549	0.0607	0.123
ACGCAAA	-0.152	0.00782	-0.103	-0.175	-0.135	-0.717	0.132	0.00546	-0.207	-0.0762
TTGGTTA	0.000127	0.00126	0.124	-0.384	-0.0453	0.239	-0.115	-0.0536	0.0966	-0.216
ATTTACC	-0.0582	-0.031	-0.318	-2.51	0.07	-0.701	-1.2	-0.0495	-0.0407	-0.139
GCTCCCA	-0.177	0.0931	0.0335	0.104	-0.024	0.38	-0.39	-0.0246	0.139	0.0238
